Laboratory results taken from the supplement of paper PMC3334620.
Whole data set: some 33,000 sequences, median “E-score (-0.5 to 0.5)” near -0.041, cut for the highest 2% near 0.37. This is one part of the list.

The sequences below were run against T1, Ecm22 (UniProt Q05958) (assay: PBM E-score (8-mer binding enrichment) (E-score (-0.5 to 0.5)); higher = stronger / more preferred TF binding; most listed sequences are background and not binding sites). Conditions: protein concentration: 200 nM; construct: GST-full length.
T1 sequence: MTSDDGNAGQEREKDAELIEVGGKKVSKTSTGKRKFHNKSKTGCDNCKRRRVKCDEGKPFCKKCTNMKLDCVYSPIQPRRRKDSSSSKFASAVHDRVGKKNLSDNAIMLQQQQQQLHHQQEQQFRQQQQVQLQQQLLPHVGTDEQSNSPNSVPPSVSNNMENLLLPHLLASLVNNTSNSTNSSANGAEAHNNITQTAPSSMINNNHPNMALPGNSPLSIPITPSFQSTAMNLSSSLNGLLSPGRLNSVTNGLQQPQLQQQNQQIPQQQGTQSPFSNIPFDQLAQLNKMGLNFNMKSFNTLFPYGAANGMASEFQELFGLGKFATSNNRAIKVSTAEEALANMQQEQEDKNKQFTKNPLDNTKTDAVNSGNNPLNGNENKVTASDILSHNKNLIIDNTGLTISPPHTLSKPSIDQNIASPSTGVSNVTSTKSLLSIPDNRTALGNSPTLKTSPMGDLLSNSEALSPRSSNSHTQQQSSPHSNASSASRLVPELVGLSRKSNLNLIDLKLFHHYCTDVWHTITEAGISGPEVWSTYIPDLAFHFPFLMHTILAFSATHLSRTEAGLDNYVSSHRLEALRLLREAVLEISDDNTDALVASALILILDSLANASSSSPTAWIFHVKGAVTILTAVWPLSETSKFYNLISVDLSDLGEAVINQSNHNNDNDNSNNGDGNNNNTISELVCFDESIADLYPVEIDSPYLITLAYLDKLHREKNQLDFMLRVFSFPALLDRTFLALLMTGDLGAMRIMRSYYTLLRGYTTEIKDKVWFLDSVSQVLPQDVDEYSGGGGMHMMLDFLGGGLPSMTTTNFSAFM
How it was run: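 GST-tagged yeast TFs (full-length or DNA-binding domain) were made by PURExpress in vitro transcription/translation and applied at about 100-200 nM to universal all-10-mer Agilent arrays. The arrays were made double-stranded by primer extension, on fresh or once-stripped slides. Bound protein was detected with fluorescent anti-GST, and scans were normalised with masliner. Each ungapped eight-base word, pooled with its reverse complement, received an E-score (modified Wilcoxon-Mann-Whitney statistic) from the Universal PBM Analysis Suite.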

Row | Sequence | PBM E-score
1 | AGACTTCG | 0.0857
2 | ACGCCTAA | -0.0254
3 | ACCCCCAA | -0.227
4 | AAAGCGCG | -0.0557
5 | GCAATATA | 0.101
6 | TGTTTCAA | -0.0668
7 | ATTTCCGA | 0.185
8 | CTAGACCC | -0.193
9 | AAGTCTGC | -0.241
10 | AAACAGCA | -0.0103
11 | AACAAAGA | 0.0412
12 | CTGGAGTA | -0.031
13 | CTGTGCGA | 0.229
14 | CAGGCTGG | -0.00892
15 | CTAATCCC | -0.075
16 | AAGCACAC | -0.0652
17 | ATCCCGGC | 0.135
18 | CTATCGGA | 0.0301
19 | ATGATGGA | -0.228
20 | ATCGATCG | 0.194
21 | AATAGCTC | -0.187
22 | CGACACGC | 0.181
23 | GCCCCTCA | -0.0606
24 | GGTCATAC | 0.0858
25 | AACGTGAA | -0.0236

Row | Sequence | PBM E-score
26 | CTTATGGA | -0.122
27 | ATCAGCGA | 0.0199
28 | CTTACTGC | -0.119
29 | CATACCCC | -0.0887
30 | ACCGCGAA | 0.0992
31 | GCGACGTA | 0.265
32 | GTTATCAA | -0.026
33 | CCAATAAC | 0.0328
34 | ACGGAACA | 0.0777
35 | CAAGCTTC | 0.0567
36 | ACCGGCTG | -0.125
37 | AGAGTGGC | -0.125
38 | GGCTCCAA | -0.255
39 | GATGAAGA | 0.0264
40 | ATCGCATC | 0.172
41 | GAGCCCGC | 0.132
42 | CAGTCGAC | 0.0794
43 | ATAGACCC | -0.102
44 | AGTCTGTA | 0.0767
45 | ACCCCCGA | -0.157
46 | GCATACCA | 0.0161
47 | ACCCATGA | -0.142
48 | ACGGATGC | 0.128
49 | TGGATCAA | -0.152
50 | CCAAATCA | -0.0571

Row | Sequence | PBM E-score
51 | GGGAACTA | 0.0948
52 | GGACGTAA | -0.191
53 | CACGGAGC | -0.0645
54 | CGGGAAAG | 0.0376
55 | ACGGTCAT | 0.133
56 | CTTCTGTC | -0.199
57 | CTCTGACC | -0.093
58 | ACATGTAC | 0.0377
59 | CGCATTTC | 0.0907
60 | GGCTAACC | -0.137
61 | GCTCGTCA | 0.0115
62 | ACAGCTAC | -0.00322
63 | AAACTAAA | 0.0234
64 | GAAGAAAC | 0.132
65 | CTAATGTA | 0.0966
66 | ATAACGCA | 0.0311
67 | TAACCACA | 0.015
68 | GTAGGTAA | -0.25
69 | CCGGAAAG | -0.0844
70 | TGTAAACA | -0.0145
71 | CATCGCTA | 0.136
72 | GATTCCAA | -0.114
73 | ATACTATC | 0.0363
74 | GCGTGCCA | -0.107
75 | CCCAGGAC | -0.318

Row | Sequence | PBM E-score
76 | CGTGTAAG | 0.121
77 | TATGACCA | 0.0827
78 | AATACTAC | 0.173
79 | AGTAGACG | 0.0957
80 | ACGCTATC | 0.0211
81 | GAAGTGTA | -0.0859
82 | CCTCCGTC | -0.147
83 | AACTGGAG | -0.292
84 | AGGTCTGC | -0.195
85 | CCGGTACC | -0.103
86 | AACGTATC | 0.127
87 | ATAGAAAC | -0.00054
88 | GTAAGGAC | -0.113
89 | AAGAGCTT | -0.107
90 | GTAACGGA | 0.15
91 | GTTTAAAC | 0.285
92 | ACAGGACG | -0.0316
93 | ATAATGAC | -0.0848
94 | TGTCCGAA | 0.165
95 | AGGTTGAG | -0.181
96 | AACTTCGC | 0.175
97 | CTGCGCCA | -0.1
98 | ACAGGAGC | -0.144
99 | AACCTCTA | -0.146
100 | CTGTTTTC | 0.00601

Row | Sequence | PBM E-score
101 | CCAGCAGG | -0.104
102 | GTGCGGTA | 0.103
103 | CTTACTCA | -0.278
104 | AGTAGAGC | -0.2
105 | AGCTCAAT | -0.1
106 | CTGTGGTC | -0.154
107 | AGCATTAA | 0.0992
108 | AAACCCCA | -0.183
109 | ACGCGCGC | 0.224
110 | CTATCAGA | -0.0322
111 | AGGCTGGG | -0.263
112 | ACCTCTAA | -0.197
113 | AATACATG | 0.00214
114 | CGATATTC | 0.0427
115 | TGTATTAA | 0.0318
116 | ACGACCAG | 0.319
117 | ATAGACTG | -0.136
118 | CGAAACTC | 0.175
119 | AAGGATCT | -0.231
120 | CCGGAACG | 0.445
121 | AGCAGGAA | -0.113
122 | CTGTGATA | -0.112
123 | ATCCGAAT | 0.265
124 | CGTCGTCA | 0.0778
125 | TCGAACCA | -0.029

Row | Sequence | PBM E-score
126 | GCAAGAGA | -0.102
127 | ACCGATTC | 0.127
128 | GCTCGTAC | 0.486
129 | GGCGGTTA | 0.033
130 | GAATCATC | 0.0775
131 | CATCTGAA | -0.108
132 | AGTCAGGC | -0.182
133 | AAGGATAA | -0.0836
134 | GCTTGACC | -0.101
135 | GGAAGCGA | 0.227
136 | ACCGGCTA | -0.0846
137 | AAAGGAGA | -0.219
138 | ATGTCCGG | -0.164
139 | AGAAACGC | -0.0375
140 | GGCAGGTA | -0.0373
141 | CCAAGGTA | -0.0792
142 | AAAGACTC | -0.228
143 | CCATGCCG | -0.0818
144 | GTGTTAAA | 0.115
145 | ATATTAGA | -0.0362
146 | ATATCGTA | 0.413
147 | GTTAGGTA | 0.156
148 | AAGGACAG | -0.127
149 | CTGCGAAC | 0.116
150 | AATGGAGG | -0.264

Row | Sequence | PBM E-score
151 | AGATATAC | 0.262
152 | ACAGGAGG | -0.122
153 | GCGACGGA | 0.124
154 | ATAGAGCC | 0.102
155 | ACAACTAC | -0.138
156 | GTAGTAAA | -0.0594
157 | GTCTTCAC | -0.097
158 | CTATCAAG | -0.1
159 | GGGGCCTA | -0.363
160 | ATAATTAC | 0.00166
161 | ACGATAAT | 0.309
162 | ACATAATG | -0.0251
163 | GTCTTCCA | -0.358
164 | CGCTATAG | -0.0678
165 | ATCCGCAG | -0.0244
166 | GCACGTAA | -0.0691
167 | CCCCGCAC | 0.0767
168 | AATGTAAC | -0.126
169 | GGAGAGGA | -0.31
170 | AGCAAATC | 0.00098
171 | CCAATCCG | 0.0601
172 | AGGGTCAC | -0.217
